Experimental data reported in PubChem BioAssay AID463173 (ICCB-Longwood Screening Facility, Harvard Medical School, 2010).
Among all 52,000 compounds or so, about 1,700 (3.3%) were called active. Cut-off read from the data, not from the text of the source: active = survival mostly below about 52% (no sharp cut-off); inactive = mostly above about 56%. This is one part of the list.

System: Wild type
Experiment: S. aureus survival, RN4220 and DeltatarO strains – OD600, teichoic acid synthesis inhibitors, primary screen (AID 463173)
Conditions: S. aureus RN4220 wild type/DeltatarO growth, OD600, 18 h, active compounds read low, screened at 18.75 µg/mL (by protocol)

Which survival does the source give for `CCCn1c(=N)c(C(=O)NCc2cccnc2)cc2c(=O)n3ccccc3nc21` here?
The survival was inactive: 73%.

Which survival does the source give for `Cc1ccc(Cn2nnc3c(=O)[nH]c(C(=O)NC(C)(C)C)nc32)cc1` here?
The survival was inactive: 119%.

For `CCOC(=O)Cc1ccc(NC(=O)Nc2cc3c(cc2N2CCCCC2)n(C)c(=O)n3C)cc1`, which survival is on record?
Its survival is inactive: 84%.

For `COc1ccc(-n2cc(C(=O)Nc3cc(F)ccc3F)c3ccccc3c2=O)cc1`, which survival is on record?
Its survival is inactive: 78%.

With `O=C(Nc1ccc(F)cc1F)c1ccc2c(c1)CCN2S(=O)(=O)c1ccc(Cl)cc1` as the compound, how does the survival read?
Its survival is inactive: 81%.

`CCOC(=O)c1cc2c(=O)n3ccccc3nc2n(C)c1=NC(=O)c1c(-c2ccccc2Cl)noc1C` was tested. Which survival did it give?
The survival was inactive: 147%.

`Cc1ccc(NC(=O)Cn2c(=O)ccc3cc(S(=O)(=O)N4CCC(C)CC4)ccc32)c(C)c1` was tested. Which survival did it give?
The survival was inactive: 69%.

For `O=C(NCc1ccco1)Nc1c[nH]c2ccc(F)cc2c1=O`, which survival is on record?
Its survival is inactive: 113%.

For `CC1=Nc2ccc(N)cc2C1(C)C`, which survival is on record?
The survival was inactive: 99%.

For `CCOc1ccc(CNC(=O)Cn2ccc3cc(S(=O)(=O)N4CCCCCC4)ccc32)cc1`, which survival is on record?
Its survival is inactive: 121%.

With `CCCCOC(=O)c1ccc(NC(=O)CC2NCCNC2=O)cc1` (stereo unspecified) as the compound, how does the survival read?
Its survival is inactive: 71%.

How did the survival turn out when `COc1ccc2oc(=O)c(C(=O)Nc3cccc(C(=O)O)c3)cc2c1` was run?
The survival was inactive: 68%.

Which survival does the source give for `COc1cccc(CNC(=O)C2CCN(Cc3cc4ccccc4n3Cc3ccc(C)cc3)CC2)c1` here?
Its survival is inactive: 92%.

With `COc1cc(-c2cc3n(C)c(C)c(CCC(=O)NCc4ccccc4)c(=O)n3n2)cc(OC)c1OC` as the compound, how does the survival read?
Its survival is inactive: 81%.

`Cc1nc2c(-c3ccccc3)c(C)nn2c(C)c1CCC(=O)NCc1ccc(Cl)cc1` was tested. Which survival did it give?
The survival was inactive: 91%.

With `COc1ccc(CCNS(=O)(=O)c2ccc(N3CCCCS3(=O)=O)cc2)cc1OC` as the compound, how does the survival read?
Its survival is inactive: 68%.

With `CC(C(=O)c1ccccc1)C1(O)C(=O)Nc2ccccc21` (stereo unspecified) as the compound, how does the survival read?
Its survival is inactive: 88%.

`Cc1ccc(Cn2c(CCCNC(=O)c3ccco3)nc3ccccc32)cc1` was tested. Which survival did it give?
The survival was inactive: 95%.

Which survival does the source give for `Cc1ccc(CNC(=O)CCCN2C(=O)CCn3nc(-c4cn(C)c5ccccc45)cc32)cc1` here?
The survival was inactive: 76%.

How did the survival turn out when `CCOC(=O)c1ccc(NC(=O)c2nc(SC(C)C)ncc2Cl)cc1` was run?
Its survival is inactive: 105%.

How did the survival turn out when `CS(=O)(=O)N(CC(=O)NCCSCc1ccccc1)c1cc(C(F)(F)F)ccc1Cl` was run?
The survival was inactive: 133%.

`O=C(Cn1cnc2onc(-c3ccc(F)cc3)c2c1=O)Nc1cccc(C(F)(F)F)c1` was tested. Which survival did it give?
Its survival is inactive: 124%.

How did the survival turn out when `COc1ccc(NC(=O)CC2C(=O)N(c3ccccc3)C(=O)N2C2CCCCC2)cc1` (stereo unspecified) was run?
Its survival is inactive: 70%.

Which survival does the source give for `CCOC(=O)c1nnn(CC(=O)Nc2cc(C)cc(C)c2)c1C(=O)OCC` here?
Its survival is inactive: 89%.

`COc1ccccc1CNC(=O)c1cc2cccc3c2n1CC(C)S3` (stereo unspecified) was tested. Which survival did it give?
The survival was inactive: 124%.

How did the survival turn out when `CCc1ccc(NC(=O)N2c3ccccc3Sc3ccccc32)cc1` was run?
Its survival is active: 1%.

How did the survival turn out when `Cc1ccc(C)c(Cn2cnc3c(cnn3-c3ccc(F)cc3)c2=O)c1` was run?
Its survival is inactive: 77%.

For `CCN(Cc1ccccc1)S(=O)(=O)c1ccc2c(c1)CCCN2C(C)=O`, which survival is on record?
The survival was inactive: 78%.

`C=CCn1c(SCC(O)Cn2c3ccccc3c3ccccc32)nnc1-c1ccco1` (stereo unspecified) was tested. Which survival did it give?
Its survival is inactive: 134%.

How did the survival turn out when `Cn1nc(C(=O)NCc2ccc(F)cc2)c2c1-c1ccccc1SC2` was run?
Its survival is inactive: 70%.

Which survival does the source give for `Cc1cc(-c2ccccc2)n2nc(-c3cccc(Br)c3)cc2n1` here?
Its survival is inactive: 55%.

For `CC1CCN(C(=O)CN2c3ccc(C(C)C)cc3-c3ccccc3S2(=O)=O)CC1`, which survival is on record?
Its survival is inactive: 88%.

Which survival does the source give for `COc1nc(N(C)C)nc(N(C#N)CN2C(=O)c3ccccc3S2(=O)=O)n1` here?
Its survival is inactive: 109%.

Which survival does the source give for `Cc1ccc(-c2c(C(=O)NCc3ccc(F)cc3)oc(=O)c3ccccc23)cc1` here?
Its survival is inactive: 76%.

Which survival does the source give for `C=CCNc1nc(NCCN2CCOCC2)nc(OC)n1` here?
The survival was inactive: 105%.

`Cc1ccccc1NC(=O)Cn1c(=O)n(Cc2ccc3c(c2)OCO3)c(=O)c2ccc(C(=O)NC3CCCCC3)cc21` was tested. Which survival did it give?
The survival was inactive: 82%.

How did the survival turn out when `CC(C)CN(CCNC(=O)c1cn(C)c2ccc(S(=O)(=O)N3CCOCC3)cc2c1=O)CC(C)C` was run?
The survival was inactive: 82%.

`COc1ccc(CCCc2nnc(SCC(=O)Nc3ccc(F)cc3)o2)cc1C` was tested. Which survival did it give?
Its survival is inactive: 74%.

With `CSCCC(NS(=O)(=O)c1ccc2c(c1)oc(=O)n2C)C(=O)NCc1ccccc1` (stereo unspecified) as the compound, how does the survival read?
The survival was inactive: 95%.

`Cc1ccc2cccc(NC(=O)c3ccc(-c4cccc(Cl)c4Cl)o3)c2n1` was tested. Which survival did it give?
Its survival is inactive: 63%.

`CC(C)N(C(=O)CSc1nnc(-c2ccco2)n1C)C(C)C` was tested. Which survival did it give?
The survival was inactive: 101%.

How did the survival turn out when `Cc1cc(C)cc(NC(=O)c2oc3ccc4c(c3c2C)C(=O)CC(C)(C)O4)c1` was run?
Its survival is inactive: 89%.

For `COc1ccc2c(c1)c1c(c(=O)n(Cc3ccccc3)c(=O)n1CC(=O)NCc1ccc(C)cc1)n2C`, which survival is on record?
The survival was inactive: 82%.

Which survival does the source give for `CSc1ccc(C(=O)Nc2ccc(-c3nc4ccccc4s3)c(O)c2)cc1` here?
The survival was active: 0%.

Which survival does the source give for `CCC(=O)N1CCc2cc(S(=O)(=O)CCC(=O)N3CCN(c4cccc(Cl)c4)CC3)ccc21` here?
The survival was inactive: 69%.

For `O=C(NCc1ccc(F)cc1)C1CCCCN1S(=O)(=O)c1ccc(F)cc1` (stereo unspecified), which survival is on record?
Its survival is active: 0%.

How did the survival turn out when `N=c1n(CCN2CCCCC2)c2ccccc2n1CC(O)COc1ccccc1` (stereo unspecified) was run?
Its survival is inactive: 144%.

`Cc1ccc(C)c(N2CCN(C(=O)c3ccc(Nc4nc5ccccc5n5nnnc45)cc3)CC2)c1` was tested. Which survival did it give?
Its survival is inactive: 90%.

How did the survival turn out when `COc1ccc(N2CCN(C(=O)CCC(=O)NNc3nc4ccccc4c4nc(C)nn34)CC2)cc1` was run?
Its survival is inactive: 90%.

Which survival does the source give for `CCC(=O)N1CCN(C(=O)CC)C1c1ccccc1` here?
Its survival is inactive: 99%.

Which survival does the source give for `COc1cc(OC)c(NC(=O)Cn2c(=O)cc(C)c3c(C)nn(-c4ccc(C)cc4)c32)cc1Cl` here?
Its survival is inactive: 152%.

Which survival does the source give for `CSc1ccc(-c2nc3c(C)cccn3c2Nc2ccc3c(c2)OCCO3)cc1` here?
Its survival is inactive: 84%.

Which survival does the source give for `Cc1ccccc1NC(=O)C1C(c2cccs2)C(C#N)=C(SCC(N)=O)NC1(C)O` (stereo unspecified) here?
Its survival is inactive: 102%.

With `CCOC(=O)c1cc(C)n(CC2CCC(C(=O)Nc3ccc(C)cc3)CC2)c1C` (stereo unspecified) as the compound, how does the survival read?
The survival was inactive: 88%.

How did the survival turn out when `CCc1ccc(NC(=O)c2ccc3nc(C(C)C)oc3c2)cc1` was run?
The survival was inactive: 66%.

Which survival does the source give for `CCNC(=O)c1ccc(CSc2nc3cccnc3n2Cc2ccc(OC)cc2)cc1` here?
Its survival is active: -3%.
